# Reference: article PMC6451091
# Some of the results follow. For part of these data: At the low end of the ranking the order means little. For part of these data: The protein was read in a cell extract, so binding may be indirect.
# How the values were obtained:
# Settings in all cases: 20 mM HEPES pH 7.9, 100 mM NaCl, 1 mM DTT, 0.2 mg/mL BSA, 0.02% Triton X-100, 2% milk, 0.4 mg/mL salmon testes DNA; 1 h; temperature not stated; high values mean tight binding; double strand, one strand shown; sequences stand for … in GCCTAGCAC…GTGCTAGGTCTTGATTCGCTTGACGCTGCTG
# PU.1 (IVT) = PU.1 (IVT) (UniProt P17947); assay: protein-binding microarray (PBM)
# [1] = biological target: PU.1 (endogenous, THP-1 nuclear extract) (UniProt P17947); assay: nuclear extract protein-binding microarray (nextPBM)
# [2] = biological target: T1, FLI1 (endogenous, THP-1 nuclear extract) (UniProt Q01543); assay: as above
# T1 sequence: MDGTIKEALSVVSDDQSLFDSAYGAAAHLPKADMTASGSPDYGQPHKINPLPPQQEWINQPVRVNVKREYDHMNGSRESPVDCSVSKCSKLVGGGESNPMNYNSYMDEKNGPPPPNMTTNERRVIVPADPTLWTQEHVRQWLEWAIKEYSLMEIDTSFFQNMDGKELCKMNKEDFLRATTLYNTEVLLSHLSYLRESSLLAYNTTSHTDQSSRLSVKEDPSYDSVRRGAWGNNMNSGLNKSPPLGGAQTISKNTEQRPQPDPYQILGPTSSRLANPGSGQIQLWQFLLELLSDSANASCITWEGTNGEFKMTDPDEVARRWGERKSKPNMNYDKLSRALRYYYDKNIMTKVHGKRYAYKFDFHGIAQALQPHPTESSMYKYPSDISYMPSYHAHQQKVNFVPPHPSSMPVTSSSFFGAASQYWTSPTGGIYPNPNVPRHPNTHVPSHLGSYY
Sequence,binding signal (PU.1 (IVT)) [z-score],binding signal [1] [z-score],binding signal [2] [z-score]
CGAAAGGGCAAGTGCTAAAC,-0.11,-0.28,0.236
TTGTTGAGGAAGTGGGTGTT,3.93,3.95,2.26
GAAATAAGGAACTGCCACTG,4.4,4.37,1.31
AGAAAGAGGAACTGAGAAAG,6.49,6.87,2.48
TAATTGGGGAAGTGGTTTTG,6.12,6.29,2.78
TCAAAAAGGAACTGTGCCCC,1.77,1.35,0.413
TAAGAGGGGAAGTGGCCACA,4.43,3.79,2.02
ACAAAGAGGAACTAGGGGAG,4.96,6.11,1.49
CAATTGAGGAAGTGGTGGGT,6.98,6.68,3.19
GAAAACAGGAATTCCCATAG,2.2,1.69,1.26
GAAAAGAGGAACAGGCCTGA,4.62,5,1.24
AAAAACAGGAAGAGAACCTG,4.26,5.07,2.61
GCGAAGAGGAAGTTGCGCAG,6.26,6.64,3.25
AGAGAGGGGAAGTGTTTCAG,3.71,3.51,2.27
CGAAATGGGAAGTGCTAAAC,4.8,4.65,1.84
CTTGGGAGGAAGTGTGGAGC,2.65,2.62,2.22
AGTTTAAGGAAGTGAATTTC,5.94,6.17,2.9
TAAATGAGGAAGTGCTGCAT,8.18,7.55,4
CAAATGGGGAAGTGTCCCTT,6.6,7.1,2.65
AGGATGAGGAAGTGCAGTCT,5.97,6.42,3.28
TGAACGAGGAAGTGCAACCA,3.42,3.7,1.57
